Values marked as one replicate rest on one cluster of the flow cell; about a third of the high ones do not repeat.

For the data set, the system named is ATP. Put plainly: switch fluorescence ratio, 500 uM ATP over buffer (Cy3 cluster intensity, sum of 5 cycles each) (fold (ratio)); higher = stronger signal-on switching upon ATP binding; sequences stand for … in TCGTCGGCAGCGTCAGATGTGTATAAGAGACAGTTTTTTTTTTTTTTTTTTTTTTTTT…TC. Conditions: aptamer strand: ATP DNA aptamer (quencher-CACCTGGGGGAGTATTGCGGAGGAAGG + anchor), 100 nM annealed; ATP concentration: 500 uM; one replicate. Summed up:
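Switching-strand clusters labelled with Cy3 on a modified Illumina MiSeq flow-cell were annealed to 100 nM quencher-labelled ATP aptamer, imaged in selection buffer, and re-imaged after 15 min with 500 uM ATP at 22 °C. This was done over five cycles with NaOH stripping and re-annealing in between. The fluorescence ratio is summed target-cycle over summed buffer-cycle Cy3 intensity per cluster, averaged per switch-domain sequence, excluding clusters outside 100-1000 RFU.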
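Further: ATP exposure 15 min at 22 °C before imaging.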

On to TAATACAGGC, for which the switch fluorescence ratio was found to be 1.03.

Take AAGAGATGA: the switch fluorescence ratio stood at 1.01.

On to ACTTGTTTTC, for which the switch fluorescence ratio was 0.963.

With TCTGGTTGTC, the switch fluorescence ratio amounted to 1.05.

Take GGTAAGTAAA: the switch fluorescence ratio worked out at 1.3.

Consider ACGACGTTGT, for which the switch fluorescence ratio was 1.03.

Regarding CGCAAACGGT, the switch fluorescence ratio amounted to 3.18.

Turning to GGACCGGAGA, the switch fluorescence ratio is 1.01.

For the sequence GAGGCGGTAA, the switch fluorescence ratio was 1.36.

Turning to CGGGGGCGTG, the switch fluorescence ratio is 0.931.

On to TTTTAACACC, for which the switch fluorescence ratio is 1.02.

With TACAGTGATC, the switch fluorescence ratio worked out at 1.03.

On to GTGTTCGTAT, for which the switch fluorescence ratio amounted to 0.97.

In the case of GGTTGTAGAA, the switch fluorescence ratio was determined as 0.963.

On to CTATAGAGAC, for which the switch fluorescence ratio was found to be 1.05.

On to CATTCCCCGA, for which the switch fluorescence ratio came to 1.24.

Turning to TAAGTCCCCT, the switch fluorescence ratio is 1.51.

For the sequence ATCCTCACAC, the switch fluorescence ratio stood at 1.33.

As to TTTCGCCGG, the switch fluorescence ratio worked out at 1.1.

In the case of CCTCCAGTTT, the switch fluorescence ratio was determined as 1.41.

On to TCTACAATGA, for which the switch fluorescence ratio was found to be 1.

ACGATTGGGG: the switch fluorescence ratio worked out at 1.13.

For TCTACCGGAA, the switch fluorescence ratio was determined as 1.8.

AAAGATATTA: the switch fluorescence ratio was 1.04.

On to ATCTTACTCT, for which the switch fluorescence ratio is 1.1.

With CGTACGACCG, the switch fluorescence ratio turned out to be 0.956.

Regarding ACAAGGTCAT, the switch fluorescence ratio stood at 1.06.

In the case of CAGATTGTAG, the switch fluorescence ratio turned out to be 0.98.

As for CGCTAGTTGG, the switch fluorescence ratio came out at 1.

CTGCGGGTCG: the switch fluorescence ratio came out at 1.01.

In the case of GGCCAGCTTT, the switch fluorescence ratio amounted to 0.96.

Consider AAGGTTATAC, for which the switch fluorescence ratio was found to be 1.05.

Regarding TGGCCTCCTA, the switch fluorescence ratio worked out at 1.

For the sequence GTGGTCCAGC, the switch fluorescence ratio turned out to be 0.984.

For CTTTTAGCCG, the switch fluorescence ratio worked out at 0.982.

GAGGGTATTC: the switch fluorescence ratio was 0.936.

With GGACGAGCCA, the switch fluorescence ratio stood at 1.01.

With GATGGATGGT, the switch fluorescence ratio was 1.03.

Take CATTGGCCGC: the switch fluorescence ratio is 1.

Turning to GTTGGGAATA, the switch fluorescence ratio was 1.05.

Consider AATACGGGCT, for which the switch fluorescence ratio was determined as 1.05.

Turning to AATGAGGAGA, the switch fluorescence ratio is 0.988.

Turning to TAGGAGTAT, the switch fluorescence ratio is 0.984.

For the sequence GCTTCCCCTG, the switch fluorescence ratio is 2.57.

With TGACCACTTT, the switch fluorescence ratio came out at 1.01.

For AAGTTATGCG, the switch fluorescence ratio was 0.955.

GGTCTGTTAA: the switch fluorescence ratio turned out to be 0.991.

With GCCGAGCATG, the switch fluorescence ratio was 1.24.

For GGCGACGGTG, the switch fluorescence ratio worked out at 0.987.

In the case of TTGGCTGTTG, the switch fluorescence ratio was determined as 0.992.

Regarding GAGGGCCCCT, the switch fluorescence ratio amounted to 1.35.

On to TAGCAGTAGT, for which the switch fluorescence ratio came out at 1.18.

TGCTATGATT: the switch fluorescence ratio stood at 1.04.

For GAAAAGTTCA, the switch fluorescence ratio worked out at 1.01.

For the sequence TCGAATCTGG, the switch fluorescence ratio came out at 0.986.

In the case of TACAGCGTAT, the switch fluorescence ratio stood at 0.995.

As for CATAACAAT, the switch fluorescence ratio was determined as 1.02.

Take TCCTGTGGCG: the switch fluorescence ratio worked out at 0.946.

In the case of TTTAGAGCCG, the switch fluorescence ratio is 0.963.

For CACATGCCGA, the switch fluorescence ratio came to 1.01.

Turning to TTACTTAGT, the switch fluorescence ratio was 1.04.

For TGTAAAAGGG, the switch fluorescence ratio worked out at 1.27.

Take GTCGACCCGA: the switch fluorescence ratio worked out at 1.02.

For GATCCTAAAT, the switch fluorescence ratio was found to be 1.02.

As to TGTAGTGGTG, the switch fluorescence ratio stood at 0.907.

Consider TGTTTCGCT, for which the switch fluorescence ratio turned out to be 0.987.

GGTGTGAGCC: the switch fluorescence ratio worked out at 1.05.
